This is one part of the list.
B1: chr7:7573188:7573293:+|CDS|ENSG00000164654|unk|FALSE|bound_elsewhere (ssRNA)
RNA: GGGAGUUCUACAGUCCGACGAUCCCAUAUUUCCACGAUCGUGUUGCUUCCUUCUAUGAAGGUCAGGUUGCAAUAUGGGAUCUUAGAAAAUUUGAGAAGCCAGUUUUGACAUUGACUGAGCAACCAAAACCCUUAACAAAAGUACAACAGAGGAUUGAGCAUCA
B2: chr17:47844907:47847298:-|three_prime_utr|ENSG00000189120|control|control|control (ssRNA)
RNA: GGGAGUUCUACAGUCCGACGAUCAAGGUGCGUAUUUAUUCAGGGAGGAGGAAAAGUGGUGCAGGGACAGGGAGAUGGGGCGCUAGGGGUUCUUAGUCUCUGGGGCUACUAGGCAGGAUGAAUUUGACUGGGUCGGUAGGAGCUCAACAGAGGAUUGAGCAUCA
B3: chr2:216675642:216675774:-|3pUTR|ENSG00000115461|msi1|FALSE|unique (ssRNA)
RNA: GGGAGUUCUACAGUCCGACGAUCUUUUUCUUUGUUUUUUUCUUUCUUCCUUUCUUUCAAAGGUUUGCAUUAACUUUUCAAAGUAGUUCCUAUAGGGGCAUUGAGGAGCUUCCUCAUUCUGGGAAAACUGAGAAAACCCAUAUUCAACAGAGGAUUGAGCAUCA
B4: chr17:48133441:48133816:-|three_prime_utr|ENSG00000141293|control|control|control (ssRNA)
RNA: GGGAGUUCUACAGUCCGACGAUCAGCUACCAGUAAGACAAGUGGGAAGAGGCACGUUCAUCAAACCUGUUACUAAACCAGCCUAGUCAUAGCUCAUCCCCAUCUCUAAAUGUGUCCACACAACCACAUCUGCCUUUUCCACAACAACAGAGGAUUGAGCAUCA
B5: chr1:235977234:235977335:-|3pUTR|ENSG00000116962|msi1|FALSE|unique (ssRNA)
RNA: GGGAGUUCUACAGUCCGACGAUCGUCUAAGACCCCCAUUAUAAUAUUCAUGCGCUGCUUUUUCAUCAAAACCUACCCUGUCCUAGAGAUCUAUGGGCAUUUGGUGGAUGAUAAUGAGCAGCCCCUCCCAGAUAGAAUGUCAAUCAACAGAGGAUUGAGCAUCA
B6: chr14:75134619:75134720:-|3pUTR|ENSG00000170348|msi1|total|mutant (ssRNA)
RNA: GGGAGUUCUACAGUCCGACGAUCAACAAGUCAAUGAGGGACUUCUUUUUAAUUUGGCCGGAUUUUGACUGGUUUUGCAACAACCGGUCUAUUAUCCGAGUCACCUAUGACAAAAAACCGGGGUUACCCCGAUAAUGCCAAAGUCAACAGAGGAUUGAGCAUCA
B7: chr12:39370042:39370220:-|CDS|ENSG00000139116|unk|total|mutant (ssRNA)
RNA: GGGAGUUCUACAGUCCGACGAUCUACUUUUGACUAUGUAUUUGACAUUGACUCCCAGCAAGAGCAGAUCUACAUUCAAUGUACCGAAAAACUAAUUGAAGGUUGCUUUGAAGGAUACAAUGCUACAGUUUUUGCUUAUGGACACAACAGAGGAUUGAGCAUCA
B8: chr11:4681751:4682711:-|CDS|ENSG00000167332|control|control|control (ssRNA)
RNA: GGGAGUUCUACAGUCCGACGAUCUUAUCCACAUCCACCAUGCCUAAGAUCCUUGCCCUUUUCUGGUUUGAUUCCCGAGAGAUUAGCUUUGAGGCCUGUCUUACCCAGAUGUUCUUUAUUCAUGCCCUCUCAGCCAUUGAAUCCCAACAGAGGAUUGAGCAUCA
B9: chr16:14644374:14644495:+|CDS|ENSG00000103429|unk|FALSE|unique (ssRNA)
RNA: GGGAGUUCUACAGUCCGACGAUCAACACAAUGGACCUUGAGAGAGAUGAACCUCUCAAAAGCACCGGCCCUCAGAUUUCUGUUAGUGAAUUUUCUUGCCACUGCUGCUACGACAUCCUGGUUAACCCCACCACCUUGAACUGUCAACAGAGGAUUGAGCAUCA
B10: ENSG00000198589:be:win_2401|CDS|ENSG00000198589|bound_else_gene|NA|bound_elsewhere_windowed (ssRNA)
RNA: GGGAGUUCUACAGUCCGACGAUCCAUAAACAGCAUCCAGAUCCUGAUUCUUCAGUGAAGAUACAAAACCCUCAGAUACUAAAAGUAAUUGCGACCCUACUUCGAAAUUCUCCCCAGUGCCCAGAGAGCAUGGAGGUUCGCAGACAACAGAGGAUUGAGCAUCA
B11: chr11:74254050:74254151:+|3pUTR|ENSG00000214517|unk|FALSE|unique (ssRNA)
RNA: GGGAGUUCUACAGUCCGACGAUCUUGGAAGACCCAGAGAGGCCAAGAUCCCAUCCUUAGCCAUAGCGAGCGGUGGUGGUGGAUAGCAUCACAAGAAACGAGCCUGAAAAUCAGGUCCAGCCGGUCCAAGCACAUGGCCUCCCACAACAGAGGAUUGAGCAUCA
B12: chr1:32195301:32195402:+|3pUTR|ENSG00000084652|msi1|total|mutant (ssRNA)
RNA: GGGAGUUCUACAGUCCGACGAUCUGACCUGGCUGGCAUCUGGCACUUGCAAUUUUGGAUUUUGUGGGUCAGUUUUACGUACACCGGGCAUUUUGCAAGGCCUUGCAAAUGCAUUUAUACCUGUAAGUGUACAGUGGGCUUGCACAACAGAGGAUUGAGCAUCA
B13: chr16:2708819:2708933:+|3pUTR|ENSG00000167977|unk|total|mutant (ssRNA)
RNA: GGGAGUUCUACAGUCCGACGAUCCUCUCUGGGGAGCUGCUGGCCGCUCCGCGUUGUUUGAUUUUUGACCUUGACACCGCCGACCGGCUUGUGGUUUUUUUAAUUUAAAGAUAUUAAGACUUAAUUCACUAAAAUUUAUUCUAACAACAGAGGAUUGAGCAUCA
B14: chr8:81702113:81702224:-|3pUTR|ENSG00000104231|unk|FALSE|unique (ssRNA)
RNA: GGGAGUUCUACAGUCCGACGAUCGUAUAGCCUUGCUGUCUGUCUACAUCAUGAUGUAUAAAUUGAUAUAUCUACAUGAAUUAUAGAAACUUAGAAGUGAUCUUUAUUCAGUCUUAUAAUUUUUACAUGAAGAAUCUUAGGCCUCAACAGAGGAUUGAGCAUCA

molecular target: MSI1 full-length (mouse, UniProt Q61474 1-362); test: nsRBNS (natural sequence RNA bind-n-seq); RBNS binding buffer (assumed for nsRBNS): 25 mM Tris pH 7.5, 150 mM KCl, 3 mM MgCl2, 0.01% Triton X-100, 500 ug/ml BSA, 20 U/ml SUPERase-In, 4 C; UNK is unkempt and MSI1 is Musashi-1; names of the RNAs are library labels; protein concentration not given here; high values mean tight binding
Chain of UniProt Q61474 (Q61474 whole entry): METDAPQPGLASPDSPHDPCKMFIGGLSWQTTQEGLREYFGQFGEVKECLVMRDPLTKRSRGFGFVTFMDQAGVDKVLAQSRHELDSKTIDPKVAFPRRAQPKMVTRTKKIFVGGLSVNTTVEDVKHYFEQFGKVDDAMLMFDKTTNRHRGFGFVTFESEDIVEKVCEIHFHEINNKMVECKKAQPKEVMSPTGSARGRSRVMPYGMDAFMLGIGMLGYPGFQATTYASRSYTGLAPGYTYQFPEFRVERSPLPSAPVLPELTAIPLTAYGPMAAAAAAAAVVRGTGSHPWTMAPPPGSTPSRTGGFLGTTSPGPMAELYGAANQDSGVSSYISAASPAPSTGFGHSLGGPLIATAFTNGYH

Binder	binding signal [enrichment R]
B1	0.169
B2	1.3
B3	0.346
B4	2.27
B5	1.05
B6	0.165
B7	0.391
B8	0.511
B9	0.545
B10	0.42
B11	1.95
B12	0.348
B13	1.78
B14	5.54

Source: PMC12136788
